Source: the supplement of paper PMC12632987
The full ranking holds about 4,500 sequences; the median of “median log2 fold change of GCK-ALFA target abundance (FLAG IP / Myc IP barcode read proportion)” is about 0.078, and the lowest 2% start at about -0.6. Some of the results follow.

B1: GBRAP_160_4280 (protein)
chain: GEKLKELAEEVEEDRDEILSLVDEISAEEIRTLAVTSIGSAIMEAIDLGVLTDEEEDELAAIRDELEEELDEAKDASPEEIKEIITEHFDKVIELLRKAA
B2: GBRAP_159_3964 (protein)
chain: MEEKLAAAAELAEAAGLSPEAREDVLLAVELYLEGESDGSVAAHLFHAVQRHGLTVEQVRAVAEFFKSLGLEEALELTAELLREAGLEEHAAAIREVLAE
B3: GBRAP_160_4488 (protein)
chain: SEKLEEAKEEVRRIIELAVEAILEEKTENKRAIAAAFAGEIAQTLKELGVVTEEEEDEALELAEEGMERMVEASEEGEEALREAARELERRLEEFLEKAS
B4: GBRAP_139_3692 (protein)
chain: SAEEEKIEEARRLTRRAVEEGEPALRELAEYLVSLSEEEQIKAAEAIGEVLLPLPFDEAEAILEGLIKILREEFGNEDLAEIVEAEANRTLALIAVREEA
B5: GBRAP_166_4968 (protein)
chain: MEEEIVKELKEYIDEKAEKMKTANEEEKLELLAEVAEKLGEAKKKGLSKENLKELVKYLIKEARKVGISDSQVYGALSIIADLDEEEIDILEEARKEVEK
B6: GBRAP_80_6824 (protein)
chain: MEEELEEVLKEIEEKDKEVAEIAKEIVEIARKLGVSLEVLLRYAKALLELLKKDKEAALKLAKETLEEVKEAAKKGDKEEVTAILAEGESDALLKVEELE
B7: GBRAP_9_7127 (protein)
chain: KKELVEKLKEVVEEMIEDISKVVPEVTEEMKEEFLKKVEELEKEALEDESLTPEEIKEKFKELVEEIKEEVKKIVDEELKKLVEAIALTALEEIDEIVEE
B8: GBRAP_160_4595 (protein)
chain: SEEEEKLLKELEEIAEEAIKLIEGETHEQRLVILRVMGGDILLELSESSLATDELEEKADEIIDELIETVESNPDLTEEEIKELIKEMLEKIKEAIKKES
B9: GBRAP_125_3134 (protein)
chain: GMAEDLEDLAIVARALGFSDDDVAEAVAIAAKHGFKGTLYAIMAALGYDEVADLVEKITEEEAIEVIREVAAEIRADPSLTPEEVVELIKKRLEEVIAKK
B10: GBRAP_128_3272 (protein)
chain: MNEEVVAFAKELMEKIKNSDEEEKREIAREIMERIKESSLEDAETMIEVIEELLPELSAEDLDILADEARKAIPELDPEKANLVAGLEVEALNQREELEE
B11: GBRAP_160_4017 (protein)
chain: SAEIEALIKEIEELIEEAIEMMKGETPEERLTIARGMFGDILQLIFESPEVSDETEDEIAKLLDEALKELEENKDKDYETWVEILEKLLKKIKALLEKDK
B12: GBRAP_11_2835 (protein)
chain: KKEKLKEIAEKAEEVAKELEELIASGNPTEEELEELREKVKELLKLAKELGDESLVKLAEIALEEIEKAIEDPENRLEHLERALAAVRVLEGQALLLYDE
B13: GBRAP_11_2689 (protein)
chain: KKEKLEEGAKLAEKGAELVERLLREGVDNEELLAELEKTLEELLKLAKKHASPASQKLTEDIKETWKRLLADPENAEEYARELLAGLRVLAGQYLLEIEE
B14: GBRAP_52_6296 (protein)
chain: MREEARKIAEELVELKKKGDEEGLEKKVKEIVEEKSKEFIKLIGEELARMAAESDEETQDIIFEVMELLADELIKGGYDEAFANDLLARVAAAAYQNELR
B15: GBRAP_172_5000 (protein)
chain: GVTLLELDLLGLSREEAVEKAVEAVEKTIKETGNDLVVAVVADDEETVDAVEEAAKKVAAEHGKEVTVVGEAYRSEEDRARVLAAAEAEKIDMEYEKEEE
B16: GBRAP_14_3829 (protein)
chain: MEEIEAVIEEAREDLIELFEEIVPEKAEELAEAVEEVFEELKRRIKETGNVEEAIEEARERLKEEAKKILADEPEEIRNLVLAAIDIEFAELEEEIEELL
B17: GBRAP_35_5566 (protein)
chain: SFDETTAEMVVNTIEALTEAVDDIPPEELKTITEQITKLAEKVIEEIKNNKEALKKILEALEKLAEALKKRGLDDPNVKAAYEAVEETIKKAKEAIKKAE
B18: GBRAP_39_5669 (protein)
chain: EKEEELELLVSYLEGVAAKYLYETGKSLEEALKEAKEILKKYAEEHPELKELVERLLKLADEKGEEAKLVAIGIAEKIKEGLPLEEIKELIEKAVEYFES
B19: GBRAP_160_4468 (protein)
chain: SATVRELVEELRREVEEELERTRDESPEQIATAVAVTIGSHLMEWSENGEISDEQEDVLIEAMDRVRELAREERDASPEEVIRRIREIVEEAARRILELS

Target: GABARAP, O95166
Test: median log2 fold change of GCK-ALFA target abundance (FLAG IP / Myc IP barcode read proportion) (log2 ratio); each designed protein is fused to an ALFA-tag nanobody in HEK293 cells to bring the named protein to FLAG-tagged glucokinase (GCK); Myc marks an untargeted standard; higher = target protein stabilised (more abundant)
Conditions: target protein: 3xFLAG-MCP-GCK-ALFA reporter; HEK293 landing pad (RPLP)
Summary of the method: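 An ALFA-nanobody-fused binder library was recombined into HEK293 landing-pad cells and induced with 2 μg mL^−1 doxycycline. Cells were transfected with a plasmid expressing a FLAG-tagged target and a Myc-tagged standard. After 48 h, lysates underwent anti-FLAG and anti-Myc immunoprecipitation, and circular RNA barcodes were reverse transcribed, amplified and sequenced. Target abundance is the per-binder median log2 ratio of FLAG to Myc barcode read proportions. Barcodes needed ≥10^−7 proportion in both replicates, binders ≥3 barcodes per replicate, and a 10^−6 pseudocount was added; the two replicates were pooled.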

Sequence of GABARAP, O95166 (O95166 whole entry, the tested form may be a part): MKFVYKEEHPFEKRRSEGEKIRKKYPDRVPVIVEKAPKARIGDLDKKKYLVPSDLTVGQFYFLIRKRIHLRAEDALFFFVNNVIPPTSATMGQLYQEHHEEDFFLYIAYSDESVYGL

Binder | median log2 fold change
B1 | -0.0896
B2 | 0.184
B3 | 0.139
B4 | 0.234
B5 | 0.155
B6 | 0.257
B7 | 0.275
B8 | -0.253
B9 | -0.575
B10 | 0.177
B11 | -0.103
B12 | 0.198
B13 | 0.195
B14 | 0.199
B15 | 0.114
B16 | -0.798
B17 | 0.0525
B18 | 0.128
B19 | 0.24
